Source: PMC4336329 (PLoS ONE, 2015)
Among all 310,000 compounds or so, about 14,000 (4.5%) showed an effect of 50% or more. The effect is printed as a negative number. The list shows a part of the results.

These compounds were tested against human ether-à-go-go-related gene (hERG) potassium channel (human, UniProt Q12809) (assay: primary screen, population patch clamp on CHO cells stably expressing hERG).
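Also: peak tail current of the secondary pulse compared with the same well before compound.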

Sequence of human ether-à-go-go-related gene (hERG) potassium channel (Q12809 whole entry, looked up): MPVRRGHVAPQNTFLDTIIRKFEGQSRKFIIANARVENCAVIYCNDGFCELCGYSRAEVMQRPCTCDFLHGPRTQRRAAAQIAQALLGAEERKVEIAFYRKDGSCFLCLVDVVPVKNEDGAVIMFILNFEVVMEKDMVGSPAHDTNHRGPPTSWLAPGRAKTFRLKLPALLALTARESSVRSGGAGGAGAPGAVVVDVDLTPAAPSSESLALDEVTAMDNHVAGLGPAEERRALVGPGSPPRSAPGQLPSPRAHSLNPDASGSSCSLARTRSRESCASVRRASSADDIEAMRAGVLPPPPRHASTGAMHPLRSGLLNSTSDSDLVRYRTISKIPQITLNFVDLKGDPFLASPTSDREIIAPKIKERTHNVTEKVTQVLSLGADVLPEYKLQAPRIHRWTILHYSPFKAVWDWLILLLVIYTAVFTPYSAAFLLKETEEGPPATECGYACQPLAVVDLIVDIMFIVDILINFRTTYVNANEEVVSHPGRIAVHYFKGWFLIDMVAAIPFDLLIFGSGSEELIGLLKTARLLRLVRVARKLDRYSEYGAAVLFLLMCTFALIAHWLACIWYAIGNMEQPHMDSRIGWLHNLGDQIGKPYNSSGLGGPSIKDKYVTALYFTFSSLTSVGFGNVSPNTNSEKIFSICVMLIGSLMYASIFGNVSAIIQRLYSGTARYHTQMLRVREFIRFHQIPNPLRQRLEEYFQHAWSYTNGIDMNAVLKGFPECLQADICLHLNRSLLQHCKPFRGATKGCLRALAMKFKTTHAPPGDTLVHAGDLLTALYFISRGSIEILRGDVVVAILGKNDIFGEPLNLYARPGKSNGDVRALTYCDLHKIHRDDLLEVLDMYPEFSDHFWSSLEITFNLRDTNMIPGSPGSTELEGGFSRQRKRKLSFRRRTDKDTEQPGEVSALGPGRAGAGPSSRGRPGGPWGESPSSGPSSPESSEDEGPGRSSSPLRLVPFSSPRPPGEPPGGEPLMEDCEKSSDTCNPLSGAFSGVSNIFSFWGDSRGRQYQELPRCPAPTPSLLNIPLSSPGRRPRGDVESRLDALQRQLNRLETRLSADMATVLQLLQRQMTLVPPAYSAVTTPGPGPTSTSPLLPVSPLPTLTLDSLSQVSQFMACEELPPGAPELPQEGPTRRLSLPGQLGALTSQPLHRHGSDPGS

Compound | hERG current change (%, negative = inhibition) at 10uM
COc1ccc2c(c1)CC(N1CCN(C)CC1)c1cc(OC)ccc1S2.O=C(O)/C=C\C(=O)O (stereo not drawn) | -25.9%
Cc1ccc(/C=N/NC(=O)CNC(=O)c2ccc(S(=O)(=O)N(C)C)cc2)o1 | 16.4%
COc1ccccc1-c1noc2ncnc(Nc3ccc4c(c3)OCO4)c12 | 3.72%
Cc1cccc(OC(C)C(=O)Nc2ccc(S(=O)(=O)N3CCCC3)cc2)c1 (stereo not drawn) | -7.85%
C[C@@H]1CC=C[C@H]2[C@H]1C(=O)N(Cc1ccccc1)[C@H]2c1ccc(F)c(/C=C/c2ccccc2)c1 | 12.4%
O=C(CN1C(=O)c2cccc3cccc1c23)Nc1ccccc1C(=O)NCc1ccco1 | -2.36%
Cc1ccc(CN2CCCCC2C(=O)Nc2ccc(Oc3cccnc3)cc2)o1 (stereo not drawn) | -19.4%
CCOC(=O)CC(=O)CSc1nc(C)nc2c1oc1ccccc12 | 19.7%
Cc1ccc(SCC(=O)N=C2NC(=O)CS2)cc1 | 9.66%
CN(Cc1cccs1)C(=O)COC(=O)CNC(N)=O | 1.16%
COc1ccc(CC2c3cc(OC)c(OC)cc3CCN2C)cc1OC (stereo not drawn) | -2.23%
O=S(=O)(c1cccc2nsnc12)N1CCOCC1 | -0.495%
CCN(C(=O)COC(=O)CCCN1C(=O)c2cccc3cccc(c23)C1=O)C1CCS(=O)(=O)C1 (stereo not drawn) | -19.3%
NC(=O)/C(=C/c1ccc2c(c1)OCO2)NC(=O)c1ccco1 | 14.3%
Cc1ccc(NC(=O)c2cc(N(C)C)ccc2[P+](=O)O)cc1 | 8.18%
CCOc1ccc(S(=O)(=O)N(C)CC(=O)NC2CC2)cc1 | 2.69%
C=CCn1c(=O)/c(=C\c2ccsc2)s/c1=C(/C#N)C(=O)NCCN1CCOCC1 | -11.8%
Br.CCOC(=O)/C(=N\Nc1ccccc1[N+](=O)[O-])c1csc(N)n1 | 12.6%
O=C(CNC(=O)c1ccccc1)N/N=C/C=C/c1ccccc1 | -1.96%
CC(C)(C)SCCNC(=O)/C=C/c1ccc(F)cc1 | -2.01%
CN1CCN(c2ccc(C(CC(N)=O)NC(=O)Cc3cccc4ccccc34)cc2[N+](=O)[O-])CC1 (stereo not drawn) | 9.82%
O=C1CCCC2=C1C(c1ccccc1)n1c(s/c(=C/c3cccc(F)c3)c1=O)=N2 (stereo not drawn) | 16%
CN1CCN(NC(=O)c2cc(-c3ccc(Br)s3)nc3ccccc23)CC1 | -20.3%

Compound | hERG current change (%, negative = inhibition) at 10uM
COC(=O)C1CCCCN1C(=O)c1ccc(OC2CCN(C(C)=O)CC2)c(OC)c1 (stereo not drawn) | 15.8%
CCOC(=O)Cc1csc(SC(C)C(=O)NC2CCCCC2C)n1 (stereo not drawn) | -1.29%
O=C(Nc1ccc(F)c(Cl)c1)N1CCCC1 | 5.93%
COc1cc2c(cc1O)CC1c3c(cc(O)c(OC)c3-2)CCN1C (stereo not drawn) | -59.2%
[O-][n+]1onc2c3cc(-c4ccccc4)nnc3ccc21 | 12.7%
Cc1ccccc1C(=O)N1CCC(C(=O)Nc2ccccc2Cl)CC1 | 9.73%
CNC(=O)c1nc(C)n(-c2cc(Cl)ccc2Cl)n1 | 21.9%
COc1ccc(NC(=S)NCc2cccnc2)cc1OC | 5.8%
Cc1ccc(NC(=S)NCCCN2CCOCC2)cc1 | 12.6%
COc1ccc(CNC2CCCC2)c(OC)c1OC | -6.2%
CCc1ccccc1NC(=O)Cc1cn(C)c2ccccc12 | 3.59%
CCCC[C@H]1COCCS(=O)(=O)N1Cc1ccc(Br)cc1 | -36.4%
CCc1cc2c(COC(=O)c3cccc(NS(C)(=O)=O)c3)cc(=O)oc2cc1O | 16%
Cc1cc(C)cc(NC(=O)C(=S)NCc2ccccc2)c1 | 7.58%
COc1cccc(C(=O)COC(=O)COc2c(C)cc(C)cc2C)c1 | 1.18%
Br.COc1cccc(CNCC2CCCO2)c1 (stereo not drawn) | 13.9%
CC(=O)OCCN1CCN(C(=O)CN2C(=O)NC(c3ccccc3)(c3ccccc3)C2=O)CC1 | 9.86%
CC(=O)N1CCN(S(=O)(=O)c2cccc(C(=O)Nc3nc4c(s3)CCCC4)c2)CC1 | -39.9%
CCN(Cc1ccccc1)C(c1cc2cc(C)cc(C)c2[nH]c1=O)c1nnnn1CCOC (stereo not drawn) | 3.76%
O=C(CSc1nnc2ccc(-c3ccncc3)nn12)c1cccs1 | -35.2%
COc1ccc(NCc2nnc(SCC(=O)c3ccc(OC)cc3)o2)cc1 | -13.6%
O=C(NN=C1CCCCCCCCCCC1)c1ccncc1 | 0.505%
